Measurements taken from paper PMC10511061.
These are yes or no findings as the source states them, for the method shown. In cells and extracts the contact can be indirect. Some binding calls cover weakened binding; strength is not graded here.

The chains behind the UniProt entries cited, without tags or fusion partners. Where a name states a change or a piece, a line headed by the entry shows the natural chain unless it says otherwise. Residues count along the entry.
UniProt P23819: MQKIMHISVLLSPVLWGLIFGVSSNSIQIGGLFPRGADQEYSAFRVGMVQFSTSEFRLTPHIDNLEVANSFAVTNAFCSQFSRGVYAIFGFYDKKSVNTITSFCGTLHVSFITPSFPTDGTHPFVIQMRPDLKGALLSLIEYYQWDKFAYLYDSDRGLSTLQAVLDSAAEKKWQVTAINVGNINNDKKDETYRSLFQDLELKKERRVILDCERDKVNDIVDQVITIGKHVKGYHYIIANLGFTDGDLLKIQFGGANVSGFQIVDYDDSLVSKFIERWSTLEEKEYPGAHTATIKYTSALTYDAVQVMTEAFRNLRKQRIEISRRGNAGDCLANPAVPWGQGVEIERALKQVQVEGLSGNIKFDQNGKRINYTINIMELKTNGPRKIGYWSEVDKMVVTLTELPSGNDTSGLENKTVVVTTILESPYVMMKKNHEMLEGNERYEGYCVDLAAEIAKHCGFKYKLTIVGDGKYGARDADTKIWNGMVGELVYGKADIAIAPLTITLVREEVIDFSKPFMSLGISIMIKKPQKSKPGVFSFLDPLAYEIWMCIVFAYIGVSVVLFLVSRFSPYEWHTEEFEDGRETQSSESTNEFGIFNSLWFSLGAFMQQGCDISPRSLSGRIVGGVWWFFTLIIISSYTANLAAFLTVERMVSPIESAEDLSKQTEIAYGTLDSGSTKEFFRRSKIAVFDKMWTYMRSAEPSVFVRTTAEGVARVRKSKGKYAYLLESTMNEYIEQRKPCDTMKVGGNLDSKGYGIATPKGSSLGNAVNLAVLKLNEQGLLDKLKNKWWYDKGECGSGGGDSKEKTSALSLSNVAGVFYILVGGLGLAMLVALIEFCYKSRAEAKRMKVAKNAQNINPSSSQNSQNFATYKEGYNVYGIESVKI
UniProt Q9Z2W9: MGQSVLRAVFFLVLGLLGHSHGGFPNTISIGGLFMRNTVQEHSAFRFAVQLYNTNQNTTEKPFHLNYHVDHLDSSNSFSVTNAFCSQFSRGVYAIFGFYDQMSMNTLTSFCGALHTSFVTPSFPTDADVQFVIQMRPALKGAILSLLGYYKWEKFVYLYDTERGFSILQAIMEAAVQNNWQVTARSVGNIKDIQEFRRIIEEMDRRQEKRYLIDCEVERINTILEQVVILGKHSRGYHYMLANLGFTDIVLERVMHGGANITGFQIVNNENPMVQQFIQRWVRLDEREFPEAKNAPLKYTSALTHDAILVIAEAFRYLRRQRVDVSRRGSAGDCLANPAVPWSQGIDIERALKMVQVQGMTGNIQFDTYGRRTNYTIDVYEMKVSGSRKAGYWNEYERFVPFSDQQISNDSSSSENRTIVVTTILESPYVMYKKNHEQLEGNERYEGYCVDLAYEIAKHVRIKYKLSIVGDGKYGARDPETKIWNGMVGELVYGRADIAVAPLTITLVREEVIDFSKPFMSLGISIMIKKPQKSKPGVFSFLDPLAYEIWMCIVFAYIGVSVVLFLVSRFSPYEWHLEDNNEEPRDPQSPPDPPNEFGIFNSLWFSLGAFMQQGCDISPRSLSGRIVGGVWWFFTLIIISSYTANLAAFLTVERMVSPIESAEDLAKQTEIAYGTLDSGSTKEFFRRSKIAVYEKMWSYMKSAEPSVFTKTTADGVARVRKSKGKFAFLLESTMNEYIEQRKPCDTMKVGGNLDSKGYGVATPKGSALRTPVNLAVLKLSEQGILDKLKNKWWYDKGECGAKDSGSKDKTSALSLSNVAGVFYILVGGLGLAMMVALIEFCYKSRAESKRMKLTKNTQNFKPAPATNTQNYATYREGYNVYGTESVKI
UniProt Q66HL2: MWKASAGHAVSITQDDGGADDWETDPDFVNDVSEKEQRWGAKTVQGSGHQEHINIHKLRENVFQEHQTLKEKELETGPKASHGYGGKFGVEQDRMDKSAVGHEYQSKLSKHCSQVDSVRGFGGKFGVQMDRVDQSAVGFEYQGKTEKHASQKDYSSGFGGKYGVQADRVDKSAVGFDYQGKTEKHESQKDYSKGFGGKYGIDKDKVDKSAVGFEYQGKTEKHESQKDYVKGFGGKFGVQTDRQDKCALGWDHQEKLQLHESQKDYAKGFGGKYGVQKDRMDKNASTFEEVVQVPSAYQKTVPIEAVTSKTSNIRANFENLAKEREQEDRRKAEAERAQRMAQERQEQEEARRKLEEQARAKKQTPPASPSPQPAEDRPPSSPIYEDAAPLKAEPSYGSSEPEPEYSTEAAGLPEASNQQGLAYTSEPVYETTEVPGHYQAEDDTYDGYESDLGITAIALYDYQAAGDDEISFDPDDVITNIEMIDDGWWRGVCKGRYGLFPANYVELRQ
GST-cortactin (1-80 aa): residues 1-80 of Q66HL2
GST-cortactin (284-450 aa): residues 284-450 of Q66HL2
GST-cortactin (451-509 aa): residues 451-509 of Q66HL2
UniProt Q60598: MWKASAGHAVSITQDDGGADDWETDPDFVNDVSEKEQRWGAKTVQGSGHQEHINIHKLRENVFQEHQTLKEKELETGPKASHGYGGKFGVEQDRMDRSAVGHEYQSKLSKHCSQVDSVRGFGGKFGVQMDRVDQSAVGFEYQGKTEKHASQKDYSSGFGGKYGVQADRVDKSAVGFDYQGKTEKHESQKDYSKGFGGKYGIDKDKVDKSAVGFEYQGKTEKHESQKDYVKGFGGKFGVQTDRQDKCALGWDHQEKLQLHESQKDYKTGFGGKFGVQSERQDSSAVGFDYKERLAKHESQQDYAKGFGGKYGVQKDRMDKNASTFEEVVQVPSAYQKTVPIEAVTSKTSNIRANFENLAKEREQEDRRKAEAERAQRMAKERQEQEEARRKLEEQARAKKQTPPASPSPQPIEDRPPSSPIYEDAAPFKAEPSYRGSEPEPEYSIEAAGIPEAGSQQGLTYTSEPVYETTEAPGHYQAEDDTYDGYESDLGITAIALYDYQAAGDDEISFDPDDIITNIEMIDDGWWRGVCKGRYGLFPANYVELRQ

Experiments:
[1] = biological target: glutamate receptor 2/3 (GluR2/3) of MIN6 cells (mouse (endogenous in MIN6)) (UniProt P23819+Q9Z2W9); assay: co-IP; MIN6 cell lysate (1% Triton X-100, 1 mM EDTA, pH 7.9), 2.5 mg extract; immunoprecipitated with 5 μg polyclonal anti-intracellular GluR2/3 antibody or pre-immune IgG and protein G; Western blot with monoclonal anti-cortactin antibody
[2] = biological target: GST-tagged full-length cortactin (rat) (UniProt Q66HL2); assay: pull-down; 400 μg full-length GST-cortactin bound to glutathione beads, incubated with 2.5 mg MIN6 cell lysate (150 mM NaCl, 10 mM Tris-HCl, 0.5 mM EDTA, 10 mM NaF, 1% Triton X-100, pH 7.4) for 1 h; Western blot for GluR2/3; only the target purified
[3] = biological target: GST-cortactin (284-450 aa) (rat) (UniProt Q66HL2); assay: condition: 400 μg GST-fusion protein with 2.5 mg mouse brain extract; pull-down; 400 μg GST-fusion proteins of cortactin bound to glutathione-Sepharose beads, incubated with 2.5 mg mouse brain extract in lysis buffer (22.5 mM HEPES-NaOH, 150 mM NaCl, 1% Triton X-100, pH 7.4) at 4°C for 1 h; Western blot with anti-intracellular GluR2/3 antibody; only the target purified
[4] = biological target: GST-cortactin (451-509 aa) (rat) (UniProt Q66HL2); assay: as above
[5] = biological target: GST-cortactin (1-80 aa) (rat) (UniProt Q66HL2); assay: as above
[6] = biological target: GST-tagged full-length cortactin (rat) (UniProt Q66HL2); assay: pull-down; 400 μg GST-fusion proteins of cortactin bound to glutathione-Sepharose beads, incubated with 2.5 mg mouse brain extract in lysis buffer (22.5 mM HEPES-NaOH, 150 mM NaCl, 1% Triton X-100, pH 7.4) at 4°C for 1 h; Western blot with anti-intracellular GluR2/3 antibody; only the target purified

With “cortactin of MIN6 cells (from UniProt Q60598 1-546)” the binding [1] was “binds”.

In the case of “glutamate receptor 2/3 (GluR2/3) of MIN6 cells (from UniProt P23819 25-883; Q9Z2W9 23-888)”, the binding [2] is reported as “binds”.

In the case of “glutamate receptor 2/3 (GluR2/3) of mouse brain extract (from UniProt P23819 25-883; Q9Z2W9 23-888)”, the binding [3] is reported as “no binding”, the binding [4] is reported as “no binding” and the binding [5] is reported as “no binding”. For the same substance, the binding [6] was “binds”.
